The supplement of paper PMC3334620
Whole data set: some 33,000 sequences, median “E-score (-0.5 to 0.5)” near -0.054, cut for the highest 2% near 0.35. The list shows a part of the results.

Target: T1, Stb5 (UniProt P38699)
T1 sequence: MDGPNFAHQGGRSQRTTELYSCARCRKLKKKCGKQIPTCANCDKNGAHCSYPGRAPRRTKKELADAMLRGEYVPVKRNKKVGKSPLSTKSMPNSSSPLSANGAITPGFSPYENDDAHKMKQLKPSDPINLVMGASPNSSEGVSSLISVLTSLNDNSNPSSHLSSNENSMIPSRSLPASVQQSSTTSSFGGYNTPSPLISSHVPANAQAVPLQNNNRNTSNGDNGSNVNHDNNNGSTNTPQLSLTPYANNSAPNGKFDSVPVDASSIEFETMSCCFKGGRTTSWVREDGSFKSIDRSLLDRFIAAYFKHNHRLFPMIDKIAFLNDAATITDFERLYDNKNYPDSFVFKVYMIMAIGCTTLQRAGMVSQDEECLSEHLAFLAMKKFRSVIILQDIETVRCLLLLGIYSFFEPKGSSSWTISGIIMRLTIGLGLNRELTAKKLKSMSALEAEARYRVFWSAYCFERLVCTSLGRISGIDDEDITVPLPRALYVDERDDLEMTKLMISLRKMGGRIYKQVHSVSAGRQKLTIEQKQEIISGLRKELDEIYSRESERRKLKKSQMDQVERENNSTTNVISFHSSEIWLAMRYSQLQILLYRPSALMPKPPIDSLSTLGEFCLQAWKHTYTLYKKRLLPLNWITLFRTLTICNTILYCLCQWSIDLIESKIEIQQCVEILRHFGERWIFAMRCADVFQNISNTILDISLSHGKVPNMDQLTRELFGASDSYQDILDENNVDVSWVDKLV
Assay: PBM E-score (8-mer binding enrichment) (E-score (-0.5 to 0.5)); higher = stronger / more preferred TF binding; most listed sequences are background and not binding sites
Conditions: protein concentration: 200 nM; construct: GST-full length
In short: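 Using PURExpress in vitro transcription/translation, GST-tagged yeast transcription factors were made in full-length or DNA-binding-domain form. These were applied at about 100-200 nM to double-stranded universal all-10-mer Agilent arrays, and bound protein was detected with fluorescent anti-GST. Scans were normalised with masliner before the Universal PBM Analysis Suite assigned E-scores to ungapped eight-base words pooled with their reverse complements.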

Sequence	PBM E-score
CGTACTCA	-0.0502
CAAGACAC	-0.0964
CCGGCGCA	0.245
CGGTCCTC	0.16
CAGGTGAC	-0.154
GGTCATGA	-0.094
CGAAACTA	-0.0416
CCTCGCGC	-0.159
AGTGCAAT	-0.238
ATCTAGAG	-0.145
AGGCCCCG	0.265
ATCTATGA	-0.117
CCTAGACA	0.0869
CTCATAAA	0.0678
ATACCTGA	-0.0268
CGATTTGC	0.0364
AGAGCTCA	-0.294
ACCTCATA	-0.228
ATGTGTAG	0.00787
CTCGTGTA	-0.144
GGAGGTAA	0.231
GCGATCGC	0.0643

Sequence	PBM E-score
GTAAGCAA	-0.146
ACATTAGT	-0.0238
CCGCAGTA	0.146
TACGAGGA	-0.146
AATACTTA	-0.102
TAATTCGA	-0.225
ATACTTAA	-0.0622
AATGCAAC	-0.133
CTTTTGGC	-0.112
CTGACATC	-0.153
ATTTCAGC	-0.228
CAGTTTAA	0.106
ACCTGGGA	-0.192
GCCCTTAC	-0.0337
ACCACCAG	-0.148
CTATAAGA	-0.203
GCGGGCAC	0.212
CAGGGGCC	-0.0955
ACTCGAGA	-0.163
TCCGTCGA	0.282
GTCATCGA	-0.152
CTCCTCAG	-0.216

Sequence	PBM E-score
TCGAAACA	-0.233
CTTCCAGC	-0.208
ATGCTTTA	-0.105
TCCTGCGA	0.00297
GGCGCGCA	0.104
CGGAGGTA	0.434
AGCTTTTC	-0.0716
AGAGGTCG	0.0346
AGGTTACG	-0.0374
CTTGTAAC	0.0769
CTCGAGTA	-0.198
CCGTTAAG	0.176
GATCAGCC	-0.134
TGCAATAA	-0.0214
ATTGACGG	0.234
CGGTAGAA	0.224
CGGATTGA	0.192
AACGTGAC	-0.134
AGTTTGGG	-0.0288
AGCGGATC	0.263
AATCAGTG	-0.18
AGCAAAAC	-0.0915

Sequence	PBM E-score
AATGATGC	-0.0756
AAGTGGTC	-0.0973
CTGCCATC	-0.297
GAGGTACC	-0.00145
ACCCGCTA	0.0951
CGACACCC	0.0971
AGAAGTAA	-0.0838
ATTCTGTA	-0.186
AAATTATG	-0.0395
CATGTCCC	-0.0516
CGCATCTA	0.244
CTGCCCAA	-0.332
CACAGGTG	-0.135
GTTGACAA	0.0593
AACTACCC	-0.116
ATACGTGC	0.0328
AAGGTAGA	-0.0184
AGATTTAA	0.0536
CGTCCCAC	0.111
AATCGTAG	-0.307
